{
  "source": "the supplement of paper PMC11417369",
  "note": "The other results are listed elsewhere or left out.",
  "data": [
    {"system": "PfSIP2 AP2 domain 1 (GST-tagged)", "test": "gcPBM binding intensity (ln(normalized median fluorescence intensity)); higher = stronger DNA binding", "summary_of_the_method": "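Plasmodium falciparum DNA-binding domains carrying a GST tag were expressed in E. coli and applied for 1 h, at about 25 μg on average, to an Agilent 4 × 180k array. The array held primer-extended double-stranded 36-bp intergenic genomic probes together with negative controls, and binding took place in 1× PBS with 1% milk, 0.2 mg/ml BSA, 0.5% salmon testes DNA and 0.03% Triton X-100. An Alexa488 anti-GST antibody detected bound protein, and the array was scanned at 488 nm. Binding intensity is taken as the highest Masliner-normalised natural-log median intensity across replicate spots of either probe orientation.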", "values": [
      {"sequence": "TTTATTAGAACCGTACGTACATAGTTATTTTTTCAA [XGTACX_site8848]", "gcPBM binding intensity (ln)": 7.16},
      {"sequence": "TATGCTATAATACTCTGTACTTACTAATTTAATAAT [XGTACX_site5926]", "gcPBM binding intensity (ln)": 6.92},
      {"sequence": "TATATATATATATGGGTGCATTTTTTTGTCCATGTA [GTGCAC_site9868]", "gcPBM binding intensity (ln)": 10.7},
      {"sequence": "ATAAAATAAATGAAAAATGTAAAATGAGAAAAAAAT [CACACA_negctrl_site1026]", "gcPBM binding intensity (ln)": 7.21},
      {"sequence": "TACATATTTTTTATATGTACATATTTTTTATGTGTA [XGTACX_site442]", "gcPBM binding intensity (ln)": 7.17},
      {"sequence": "TTTTATCTCATTCATCAAAATCACCGGAATCATATA [CACACA_negctrl_site357]", "gcPBM binding intensity (ln)": 7},
      {"sequence": "TAATAAACAAATTCCAAAATAAATTAAAAGGAAAAT [CACACA_negctrl_site1404]", "gcPBM binding intensity (ln)": 6.61},
      {"sequence": "AGGTATATATTACAAGTGCACTGTAAAATTAAAATT", "gcPBM binding intensity (ln)": 10.7},
      {"sequence": "ATTTATTTATATTTAGTGCAATACTATTTTTAAATA [GTGCAC_site9886]", "gcPBM binding intensity (ln)": 7.57},
      {"sequence": "ATTTTATCATAATAAAGTACAAAGATGCAAATAATA [XGTACX_site2270]", "gcPBM binding intensity (ln)": 7.29},
      {"sequence": "GTAATGTCGTCGTTTTGTACATATTTTTATAAAAAG [XGTACX_site2688]", "gcPBM binding intensity (ln)": 7.53},
      {"sequence": "AAAAAAAAAAAGAACTCACACATAATAATGTATATG [CACACA_site4974]", "gcPBM binding intensity (ln)": 6.69},
      {"sequence": "AAAGGAGACAGAATAAGAATAAATATTATACATATA [XGTACX_negctrl_site412]", "gcPBM binding intensity (ln)": 6.76},
      {"sequence": "TATTAGTCGAATGATGTACACACATACAAAACATTT [CACACA_site9331]", "gcPBM binding intensity (ln)": 6.96},
      {"sequence": "TTAAAATTATATCTGTGTACATAAATTGTGTAACTA [XGTACX_site1966]", "gcPBM binding intensity (ln)": 6.9},
      {"sequence": "ATTTAAAAAAAAATGGCACACATTTTAATTTTATGT [CACACA_site1740]", "gcPBM binding intensity (ln)": 6.68},
      {"sequence": "TTTTTAATGATCAGACGTACAGTTATGAAGAAATTT [XGTACX_site6394]", "gcPBM binding intensity (ln)": 7.08},
      {"sequence": "TTTTTGTTTCGTTACGCATGCCAAAAGTAAAAATAT [TGCATGCA_site536]", "gcPBM binding intensity (ln)": 7.45},
      {"sequence": "TTGTGTCATATATTTTGTAATCAAAATAATTTTATT [TGCATGCA_negctrl_site307]", "gcPBM binding intensity (ln)": 6.92},
      {"sequence": "ATAATGTTCCTATGATGTACTTATAATTATCATTTT [XGTACX_site4017]", "gcPBM binding intensity (ln)": 7.1},
      {"sequence": "ATTAAAATAATATAAACACACATATACTTTTTTCTA [CACACA_site565]", "gcPBM binding intensity (ln)": 6.91},
      {"sequence": "TATTGTTCGTTTAAGGTGCTATTGTTTGCAAAATAT [GTGCAC_site9412]", "gcPBM binding intensity (ln)": 8.54},
      {"sequence": "AAGAGGTTATTACATTCACATAACATCAATATACGT [GTGCAC_negctrl_site264]", "gcPBM binding intensity (ln)": 6.85},
      {"sequence": "TGGGAAAACCCCAGAAGTACGCTTAATATAAAAAAT [XGTACX_site697]", "gcPBM binding intensity (ln)": 6.8},
      {"sequence": "TGTAGTCTGGAGAAAAGTACATAGTATCTGATAACC [XGTACX_site2018]", "gcPBM binding intensity (ln)": 7.09},
      {"sequence": "GTGCATATATGATATACACACAATATAATAGTATGT [CACACA_site2460]", "gcPBM binding intensity (ln)": 9.12},
      {"sequence": "AAGAGTTTGAAGTTTGCACACTACGTTAAAAATAAA [CACACA_site3939]", "gcPBM binding intensity (ln)": 7.16},
      {"sequence": "AATATAATGTAATATACACACATATATTTCTCTTTT [CACACA_site5451]", "gcPBM binding intensity (ln)": 6.81},
      {"sequence": "CCACATTTTACAGACACACACAATTTATATTACGGT [CACACA_site1894]", "gcPBM binding intensity (ln)": 7.16},
      {"sequence": "AAAAATTTATTTTTAGGTACACAATTGAATTATTTA [XGTACX_site7008]", "gcPBM binding intensity (ln)": 6.81},
      {"sequence": "ATAATAAAAAAAAAATGTACATAAATCTAAAATCCT [XGTACX_site5823]", "gcPBM binding intensity (ln)": 6.88},
      {"sequence": "ATATATTTAAATAAAAGTACGTAAAGGTATATTTAA [XGTACX_site8088]", "gcPBM binding intensity (ln)": 7.05},
      {"sequence": "TGAAGAAAATATTAATGTACATATTATATATATATA [XGTACX_site5497]", "gcPBM binding intensity (ln)": 8.58},
      {"sequence": "CCTCCCATTTTTACACGTACACATTTAAAATAGACT [XGTACX_site5640]", "gcPBM binding intensity (ln)": 7.67},
      {"sequence": "GTATTTTTTTTAATATGTACATATAAAATATTTTAT [XGTACX_site8329]", "gcPBM binding intensity (ln)": 7.45},
      {"sequence": "AATACAATTTATAACACACACACAATAATACATATA [CACACA_site1252]", "gcPBM binding intensity (ln)": 7.18},
      {"sequence": "ATATAAGTTTATATATGTACATATATATATTATATA [XGTACX_site2068]", "gcPBM binding intensity (ln)": 7.27},
      {"sequence": "AATTCATTTAAAAGTTGTACAAGCTTAATAAAAAAA [XGTACX_site6073]", "gcPBM binding intensity (ln)": 7.01},
      {"sequence": "ATATACACATAAAGTAGTACACCTGAAATTTTTTTT [XGTACX_site2951]", "gcPBM binding intensity (ln)": 7.21},
      {"sequence": "GAGGATATATTATATGTACACACATATATAACGGAT [CACACA_site8361]", "gcPBM binding intensity (ln)": 7.19},
      {"sequence": "CCCATGCATTTTTGCACACACATATATATATAAATA [CACACA_site1430]", "gcPBM binding intensity (ln)": 8.4},
      {"sequence": "AATTAAAAATATAAATGTACATATATGTAAAACTTT [XGTACX_site123]", "gcPBM binding intensity (ln)": 7.11},
      {"sequence": "AATATATGAATTAGAAGTACAAATAAATATTTATTT [XGTACX_site2062]", "gcPBM binding intensity (ln)": 7.04},
      {"sequence": "TTAATCATAAAAGTCACACATAATAAGAAAAAGCTT [CACACA_site4616]", "gcPBM binding intensity (ln)": 6.88}
    ]}
  ]
}
